Experimental findings from patent US20250000991A1, “NECTIN-4 ANTIBODIES AND ANTIBODY-DRUG CONJUGATES” (Eli Lilly and Company, priority 2023, published 2025) are described below.

For one data set, the system named is NCI-H1781 cells. Briefly: Cytotoxicity of ADCs with other payloads and linker chemistry, low expression line. The format is cell-based. The following applies: NCI H1781, 5 days, DAR 8. The method, then:
(§1) NCI-[…] cells were seeded in white clear-bottom 96-well tissue culture plates in culture medium (RPMI 1640+1× GlutaMax+10% Heat Inactivated Fetal Bovine Serum+1 mM sodium pyruvate). Cells were incubated at 37° C. with 5% CO2 overnight. Next day, ADCs were added at final working concentration from 100 nM, 1:4 serially diluted in culture medium. Plates were covered with Breathe-Easy® sealing membrane and incubated at 37° C. with 5% CO2. Plates were read after 5 days treatment using CellTiter-Glo Luminescent Cell Viability Assay. 100 ul/well CellTiter-Glo reagent were incubated in plates at room temperature for 10 min. Luminescence was read in the SpectraMax M5e. RLUs (Relative Light Units) were obtained with SoftMax […].4. Percentage of cell killing was calculated against no treatment as 0%. Data was graphed and analyzed using GraphPad Prism version 9.5.1. IC50 was determined via log(inhibitor) vs. response-variable slope (four parameters) curve fitting.

Data set [1] has as its system UMUC3-human nectin4 cloneF7. The data set can be described thus: Cytotoxicity of ADCs with other payloads and linker chemistry, high expression line. The format is cell-based. The following applies: UMUC3 Nectin-4 clone F7, 6 days, DAR 8. The method, then: as §1, with “fitting. UMUC3 cell line was engineered to express human Nectin4 and clonally selected for high expression. UMUC3-human nectin4 cloneF7 engineered cell line was seeded in culture medium (MEM+1× GlutaMax+10% Heat Inactivated Fetal Bovine Serum+1 mM sodium pyruvate+500 μg/ml G418). ADCs were added at final working concentration from 100 nM, 1:4 serially diluted in culture medium for 6 days.” for “fitting.”

Data set [2] has as its system UM-UC-3 Nectin4 clone F7 xenograft. Briefly: Tumor xenograft, high nectin-4 expression. The following applies: UMUC3 Nectin-4 clone F7 xenograft, single dose 2 mg/kg, day 40. The format is in vivo, mice (nu/nu). The method, then: In order to test the efficacy of the nectin-4 ADCs of the present disclosure, which have effector null mutations in the Fc region, and to compare to the enfortumab antibody, which has wildtype Fc and in an ADC with the same payload background as the ones of this disclosure, two tumor xenograft models with either high or moderate nectin-4 expression were tested as described. Immune compromised female mice (nu/nu) between 5-8 weeks of age with weight 18-20 grams were implanted unilaterally on the right flank with UM-UC-3 Nectin4 clone F7 cells with high nectin-4 expression. […] The test articles were given at a single dose (2 mg/kg) formulated with 5% dextrose. Tumors were measured biweekly until Day 40.

The subject of a further data set is MDA-MB-468 xenograft. Briefly: Tumor xenograft, moderate nectin-4 expression. The format is in vivo, NSG mice. The following applies: MDAMB468 xenograft, single dose 2 mg/kg, day 71. The method, then: In a separate study, female NSG mice between 5-6 weeks of age were injected subcutaneously with MDA-MB-468 cells with moderate Nectin-4 expression. When tumors reached approximately 150-250 mm^3; animals were matched by tumor volume into treatment or control groups and dosing initiated (Day 0, n=8 per group). The test articles were given at a single dose (2 mg/kg) formulated with 5% Dextrose. Tumors were measured biweekly until Day 71.
In both models, a 2 mg/kg single dose treatment of either the nectin-4 ADCs (exemplified herein with each of Abs1-8 conjugated as in Formula XI, and with a DAR of 8) or benchmark enfortumab ADC (enfortumab conjugated with Formula XI, and with a DAR of 8) was used. Tumor growth was measured at day 40 for UMUC3 Nectin-4 clone F7 and day 71 for MDAMB468 xenografts.

B1: Ab2 ADC: Ab2 conjugated as in Formula XI, and with a DAR of 8 (conjugate)
heavy: EVQLVESGGGLVQPGGSLRLSCAASGFTFSSYDMHWVRQATGKGLEWVSAIGTVGDTYYPGSVKGRFTISRENAKNSLYLQMNSLRAGDTAVYYCAREWNGMDVWGQGTTVTVSSASTKGPSVFPLAPSSKSTSGGTAALGCLVKDYFPEPVTVSWNSGALTSGVHTFPAVLQSSGLYSLSSVVTVPSSSLGTQTYICNVNHKPSNTKVDKRVEPKSCDKTHTCPPCPAPEAAGGPSVFLFPPKPKDTLMISRTPEVTCVVVSVSHEDPEVKFNWYVDGVEVHNAKTKPREEQYNSTYRVVSVLTVLHQDWLNGKEYKCKVSNKALPAPIEKTISKAKGQPREPQVYTLPPSREEMTKNQVSLTCLVKGFYPSDIAVEWESNGQPENNYKTTPPVLDSDGSFFLYSKLTVDKSRWQQGNVFSCSVMHEALHNHYTQKSLSLSPGK
light: DIVMTQSPDSLAVSLGERATINCKSSQSVLYNSNNKNYLAWYQQKPGQPPKLLIYWASTRESGVPDRFSGSGSGTDFTLTISSLQAEDVAVYYCQQFYTTPYSFGQGTKVEIKRTVAAPSVFIFPPSDEQLKSGTASVVCLLNNFYPREAKVQWKVDNALQSGNSQESVTEQDSKDSTYSLSSTLTLSKADYEKHKVYACEVTHQGLSSPVTKSFNRGEC
A word on the IC50: it is the concentration needed to halve the response being measured. Low values mean greater potency, high ones weaker potency. Regarding B1, the IC50 worked out at 24.5 pM in the data set with NCI-H1781 cells and 56.9 pM in data set [1]. In addition, the Mean tumor volume in data set [2] came out at 72.57 mm^3; in the data set on MDA-MB-468 xenograft, 124.95 mm^3.
